Measurements from the antibiotic and cytotoxicity screens of Wong et al. (2023).
Some of the results follow.

Assays:
HSkMC = human skeletal muscle cells; assay: cytotoxicity call (relative viability < 0.9); settings: 10 µM
HepG2 = assay: cytotoxicity call (relative viability < 0.9); settings: 10 µM
S. aureus RN4220 = assay: growth inhibition call (relative growth <= 0.2); settings: 50 µM

C[C@@H]1CN([C@H](C)CO)C(=O)Cc2cc(NS(=O)(=O)c3cn(C)cn3)ccc2O[C@H]1CN(C)S(=O)(=O)c1ccccc1
inactive: cytotoxicity call (HSkMC) | cytotoxicity call (HepG2) | growth inhibition call (S. aureus RN4220)

C[C@@H]1CN([C@H](C)CO)C(=O)c2cccc(NC(=O)Nc3ccc4c(c3)OCO4)c2O[C@@H]1CN(C)Cc1ccc(-c2ccccc2)cc1
inactive: cytotoxicity call (HSkMC) | cytotoxicity call (HepG2) | growth inhibition call (S. aureus RN4220)

COc1ccc(S(=O)(=O)Nc2ccc3c(c2)C(=O)N([C@@H](C)CO)C[C@@H](C)[C@H](CN(C)S(=O)(=O)c2cn(C)cn2)OCCCC[C@H](C)O3)cc1
inactive: cytotoxicity call (HSkMC) | cytotoxicity call (HepG2) | growth inhibition call (S. aureus RN4220)

C[C@@H]1CCCCO[C@H](CN(C)C(=O)Nc2ccc3c(c2)OCO3)[C@@H](C)CN([C@@H](C)CO)C(=O)c2cc(NC(=O)c3ccccc3)ccc2O1
inactive: cytotoxicity call (HSkMC) | cytotoxicity call (HepG2) | growth inhibition call (S. aureus RN4220)

C[C@H](CO)N1C[C@H](C)[C@H](CN(C)S(=O)(=O)c2ccc(Cl)cc2)Oc2ccc(NC(=O)Nc3cccc4ccccc34)cc2C1=O
inactive: cytotoxicity call (HSkMC) | cytotoxicity call (HepG2) | growth inhibition call (S. aureus RN4220)

Cc1ccc(S(=O)(=O)N(C)C[C@@H]2Oc3c(NC(=O)Nc4cccc5ccccc45)cccc3C(=O)N([C@H](C)CO)C[C@H]2C)cc1
inactive: cytotoxicity call (HSkMC) | cytotoxicity call (HepG2) | growth inhibition call (S. aureus RN4220)

C[C@@H]1CCCCO[C@@H](CN(C)CC2CC2)[C@@H](C)CN([C@H](C)CO)C(=O)c2cc(NC(=O)Nc3ccccc3)ccc2O1
inactive: cytotoxicity call (HSkMC) | cytotoxicity call (HepG2) | growth inhibition call (S. aureus RN4220)

COCCN1[C@@H]2COC[C@H]1CN(S(=O)(=O)c1cn(C)cn1)C2
inactive: cytotoxicity call (HSkMC) | cytotoxicity call (HepG2) | growth inhibition call (S. aureus RN4220)

C=c1ccc(S(=O)(=O)N2CCCC2)cc1=C1NN=C2c3ccccc3C(C)=NN21
inactive: cytotoxicity call (HSkMC) | cytotoxicity call (HepG2) | growth inhibition call (S. aureus RN4220)
